The text below walks through data of the supplement of paper PMC12423691.

This is one part of the list. Binding of human transcription factors and regulators to the viral nucleoprotein by AlphaScreen, crude cell-free proteins, amounts not normalised, one pass. Fold of the Venus control; higher = more signal. No active / inactive call. Single-pass screen; sequences are the whole Swiss-Prot entries looked up by name.

First the molecules themselves.
B1: NUCKS1, Q9H1E3 (protein)
chain: MSRPVRNRKVVDYSQFQESDDADEDYGRDSGPPTKKIRSSPREAKNKRRSGKNSQEDSEDSEDKDVKTKKDDSHSAEDSEDEKEDHKNVRQQRQAASKAASKQREMLMEDVGSEEEQEEEDEAPFQEKDSGSDEDFLMEDDDDSDYGSSKKKNKKMVKKSKPERKEKKMPKPRLKATVTPSPVKGKGKVGRPTASKASKEKTPSPKEEDEEPESPPEKKTSTSPPPEKSGDEGSEDEAPSGED
B2: MEF2D, Q14814 (protein)
chain: MGRKKIQIQRITDERNRQVTFTKRKFGLMKKAYELSVLCDCEIALIIFNHSNKLFQYASTDMDKVLLKYTEYNEPHESRTNADIIETLRKKGFNGCDSPEPDGEDSLEQSPLLEDKYRRASEELDGLFRRYGSTVPAPNFAMPVTVPVSNQSSLQFSNPSGSLVTPSLVTSSLTDPRLLSPQQPALQRNSVSPGLPQRPASAGAMLGGDLNSANGACPSPVGNGYVSARASPGLLPVANGNSLNKVIPAKSPPPPTHSTQLGAPSRKPDLRVITSQAGKGLMHHLTEDHLDLNNAQRLGVSQSTHSLTTPVVSVATPSLLSQGLPFSSMPTAYNTDYQLTSAELSSLPAFSSPGGLSLGNVTAWQQPQQPQQPQQPQPPQQQPPQPQQPQPQQPQQPQQPPQQQSHLVPVSLSNLIPGSPLPHVGAALTVTTHPHISIKSEPVSPSRERSPAPPPPAVFPAARPEPGDGLSSPAGGSYETGDRDDGRGDFGPTLGLLRPAPEPEAEGSAVKRMRLDTWTLK
B3: ZSCAN9, O15535 (protein)
chain: MNTNSKEVLSLGVQVPEAWEELLTMKVEAKSHLQWQESRLKRSNPLAREIFRRHFRQLCYQETPGPREALTRLQELCYQWLRPHVSTKEQILDLLVLEQFLSILPKELQGWVREHCPESGEEAVILLEDLERELDEPQHEMVAHRHRQEVLCKEMVPLAEQTPLTLQSQPKEPQLTCDSAQKCHSIGETDEVTKTEDRELVLRKDCPKIVEPHGKMFNEQTWEVSQQDPSHGEVGEHKDRIERQWGNLLGEGQHKCDECGKSFTQSSGLIRHQRIHTGERPYECNECGKAFSRSSGLFNHRGIHNIQKRYHCKECGKVFSQSAGLIQHQRIHKGEKPYQCSQCSKSYSRRSFLIEHQRSHTGERPHQCIECGKSFNRHCNLIRHQKIHTVAELV
B4: ZSCAN5B, A6NJL1 (protein)
chain: MAANWTLSWGQGGPCNSPGSDTPRSVASPETQLGNHDRNPETWHMNFRMFSCPEESDPIQALRKLTELCHLWLRPDLHTKEQILDMLVMEQFMISMPQELQVLVKVNGVQSCKDLEDLLRNNRRPKKWSIVNLLGKEYLMLNSDVEMAEAPASVRDDPRDVSSQWASSVNQMHPGTGQARREQQILPRVAALSRRQGEDFLLHKSIDVTGDPNSPRPKQTLEKDLKENREENPGLSSPEPQLPKSPNLVRAKEGKEPQKRASVENVDADTPSACVVEREALTHSGNRGDALNLSSPKRSKPDASSISQEEPQGEATPVGNRESPGQAEINPVHSPGPAGPVSHPDGQEAKALPPFACDVCNKSFKYFSQLSIHRRSHTGDRPFQCDLCRKRFLQPSDLRVHQRVHTGERPYMCDVCQKRFAHESTLQGHKRIHTGERPFKCKYCSKVFSHKGNLNVHQRTHSGEKPYKCPTCQKAFRQLGTFKRHLKTHRETTSQ
B5: E2F7, Q96AV8 (protein)
chain: MEVNCLTLKDLISPRQPRLDFAVEDGENAQKENIFVDRSRMAPKTPIKNEPIDLSKQKKFTPERNPITPVKFVDRQQAEPWTPTANLKMLISAASPDIRDREKKKGLFRPIENKDDAFTDSLQLDVVGDSAVDEFEKQRPSRKQKSLGLLCQKFLARYPSYPLSTEKTTISLDEVAVSLGVERRRIYDIVNVLESLHLVSRVAKNQYGWHGRHSLPKTLRNLQRLGEEQKYEEQMAYLQQKELDLIDYKFGERKKDGDPDSQEQQLLDFSEPDCPSSSANSRKDKSLRIMSQKFVMLFLVSKTKIVTLDVAAKILIEESQDAPDHSKFKTKVRRLYDIANVLTSLALIKKVHVTEERGRKPAFKWIGPVDFSSSDEELVDVSASVLPELKRETYGQIQVCAKQKLARHGSFNTVQASERIQRKVNSEPSSPYREEQGSGGYSLEIGSLAAVYRQKIEDNSQGKAFASKRVVPPSSSLDPVAPFPVLSVDPEYCVNPLAHPVFSVAQTDLQAFSMQNGLNGQVDVSLASAASAVESLKPALLAGQPLVYVPSASLFMLYGSLQEGPASGSGSERDDRSSEAPATVELSSAPSAQKRLCEERKPQEEDEPATKRQSREYEDGPLSLVMPKKPSDSTDLASPKTMGNRASIPLKDIHVNGQLPAAEEISGKATANSLVSSEWGNPSRNTDVEKPSKENESTKEPSLLQYLCVQSPAGLNGFNVLLSGSQTPPTVGPSSGQLPSFSVPCMVLPSPPLGPFPVLYSPAMPGPVSSTLGALPNTGPVNFSLPGLGSIAQLLVGPTAVVNPKSSTLPSADPQLQSQPSLNLSPVMSRSHSVVQQPESPVYVGHPVSVVKLHQSPVPVTPKSIQRTHRETFFKTPGSLGDPVLKRRERNQSRNTSSAQRRLEIPSGGAD
B6: ZFP42, Q96MM3 (protein)
chain: MSQQLKKRAKTRHQKGLGGRAPSGAKPRQGKSSQDLQAEIEPVSAVWALCDGYVCYEPGPQALGGDDFSDCYIECVIRGEFSQPILEEDSLFESLEYLKKGSEQQLSQKVFEASSLECSLEYMKKGVKKELPQKIVGENSLEYSEYMTGKKLPPGGIPGIDLSDPKQLAEFARKKPPINKEYDSLSAIACPQSGCTRKLRNRAALRKHLLIHGPRDHVCAECGKAFVESSKLKRHFLVHTGEKPFRCTFEGCGKRFSLDFNLRTHVRIHTGEKRFVCPFQGCNRRFIQSNNLKAHILTHANTNKNEQEGK
B7: TFEC, O14948 (protein)
chain: MTLDHQIINPTLKWSQPAVPSGGPLVQHAHTTLDSDAGLTENPLTKLLAIGKEDDNAQWHMEDVIEDIIGMESSFKEEGADSPLLMQRTLSGSILDVYSGEQGISPINMGLTSASCPSSLPMKREITETDTRALAKERQKKDNHNLIERRRRYNINYRIKELGTLIPKSNDPDMRWNKGTILKASVEYIKWLQKEQQRARELEHRQKKLEQANRRLLLRIQELEIQARTHGLPTLASLGTVDLGAHVTKQQSHPEQNSVDYCQQLTVSQGPSPELCDQAIAFSDPLSYFTDLSFSAALKEEQRLDGMLLDDTISPFGTDPLLSATSPAVSKESSRRSSFSSDDGDEL
B8: CRTC2, Q53ET0 (protein)
chain: MATSGANGPGSATASASNPRKFSEKIALQKQRQAEETAAFEEVMMDIGSTRLQAQKLRLAYTRSSHYGGSLPNVNQIGSGLAEFQSPLHSPLDSSRSTRHHGLVERVQRDPRRMVSPLRRYTRHIDSSPYSPAYLSPPPESSWRRTMAWGNFPAEKGQLFRLPSALNRTSSDSALHTSVMNPSPQDTYPGPTPPSILPSRRGGILDGEMDPKVPAIEENLLDDKHLLKPWDAKKLSSSSSRPRSCEVPGINIFPSPDQPANVPVLPPAMNTGGSLPDLTNLHFPPPLPTPLDPEETAYPSLSGGNSTSNLTHTMTHLGISRGMGLGPGYDAPGLHSPLSHPSLQSSLSNPNLQASLSSPQPQLQGSHSHPSLPASSLARHVLPTTSLGHPSLSAPALSSSSSSSSTSSPVLGAPSYPASTPGASPHHRRVPLSPLSLLAGPADARRSQQQLPKQFSPTMSPTLSSITQGVPLDTSKLSTDQRLPPYPYSSPSLVLPTQPHTPKSLQQPGLPSQSCSVQSSGGQPPGRQSHYGTPYPPGPSGHGQQSYHRPMSDFNLGNLEQFSMESPSASLVLDPPGFSEGPGFLGGEGPMGGPQDPHTFNHQNLTHCSRHGSGPNIILTGDSSPGFSKEIAAALAGVPGFEVSAAGLELGLGLEDELRMEPLGLEGLNMLSDPCALLPDPAVEESFRSDRLQ
B9: ZNF354C, Q86Y25 (protein)
chain: MAVDLLSAQEPVTFRDVAVFFSQDEWLHLDSAQRALYREVMLENYSSLVSLGIPFSMPKLIHQLQQGEDPCMVEREVPSDTRLGFKTWLETEALPHRQDIFIEETSQGMVKKESIKDGHWDINFEEAVEFESEIEEEQEKKPLRQMIDSHEKTISEDGNHTSLELGKSLFTNTALVTQQSVPIERIPNMYYTFGKDFKQNFDLMKCFQIYPGGKPHICNECGKSFKQNLHLIEHQRIHTGEKPYKCNECEKTFSHRSSLLSHQRIHTGEKPYKCNECEKAFSNSSTLIKHLRVHTGEKPYRCRECGKAFSQCSTLTVHQRIHTGEKLYKCGECEKAFNCRAKLHRHQRIHTGEKPYKCSECGKGYSQFTSLAEHQRFHTGEQLYTCLECGRTFTRIVTLIEHQRIHTGQKPYQCNECEKAFNQYSSFNEHRKIHTGEKLYTCEECGKAFGCKSNLYRHQRIHTGEKPYQCNQCGKAFSQYSFLTEHERIHTGEKLYKCMECGKAYSYRSNLCRHKKVHTKEKLYKWKEYGKPFICSSSLTQYQRFFKGDKAYEV
B10: RUNX3, Q13761 (protein)
chain: MRIPVDPSTSRRFTPPSPAFPCGGGGGKMGENSGALSAQAAVGPGGRARPEVRSMVDVLADHAGELVRTDSPNFLCSVLPSHWRCNKTLPVAFKVVALGDVPDGTVVTVMAGNDENYSAELRNASAVMKNQVARFNDLRFVGRSGRGKSFTLTITVFTNPTQVATYHRAIKVTVDGPREPRRHRQKLEDQTKPFPDRFGDLERLRMRVTPSTPSPRGSLSTTSHFSSQPQTPIQGTSELNPFSDPRQFDRSFPTLPTLTESRFPDPRMHYPGAMSAAFPYSATPSGTSISSLSVAGMPATSRFHHTYLPPPYPGAPQNQSGPFQANPSPYHLYYGTSSGSYQFSMVAGSSSGGDRSPTRMLASCTSSAASVAAGNLMNPSLGGQSDGVEADGSHSNSPTALSTPGRMDEAVWRPY

This test deals with nucleoprotein N of Crimean-Congo hemorrhagic fever virus. As to the kind of experiment: AlphaScreen luminescence signal relative to Venus negative control (fold); higher = stronger binding to CCHFV N. Here is the method: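 AlphaScreen binding of cell-free made, FLAG-GST-tagged human transcription factors and regulators (crude translation products) to biotinylated N protein; signal as fold of the FLAG-GST-Venus control. One pass.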
(In Alpha technology, singlet oxygen from a donor bead excites a nearby acceptor bead.)
Regarding B1, the AlphaScreen luminescence signal amounted to 1.12. In the case of B2, the AlphaScreen luminescence signal was 1.81. In turn, B3 showed an AlphaScreen luminescence signal of 2.56. B4 came in with an AlphaScreen luminescence signal of 5.58. In turn, B5 yielded an AlphaScreen luminescence signal of 2.51.

In turn, B6 gave an AlphaScreen luminescence signal of 1.44.

As for B7, the AlphaScreen luminescence signal worked out at 1.91. For B8, the AlphaScreen luminescence signal worked out at 2.37. Then B9, with 2.42; and B10, with 1.53.
